The values below come from paper PMC12136788.

This is one part of the list.

T1: UNK ZnF1-3 (human, UniProt Q9C0B0 31-174)
T1 sequence: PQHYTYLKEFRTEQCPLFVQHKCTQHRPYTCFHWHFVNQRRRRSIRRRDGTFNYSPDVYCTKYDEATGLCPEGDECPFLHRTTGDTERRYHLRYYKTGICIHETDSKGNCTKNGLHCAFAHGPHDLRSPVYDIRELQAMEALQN

B1: 63679155_63681178_641_CDS_ENSMUSG00000028364_ENSMUST00000107372|mouse|control|control (ssRNA)
RNA: GGGAGUUCUACAGUCCGACGAUCCCCAGGGCAGUCAGGCUCAGAGCAGUUGGGGCCUUUCCAGCCUGGUUCACAGACACAGCCGCAGCCUUCUGCACUGAAGUUGCCCCGUCCGCUGCAGAAGGGCCUGGUGUCCAGACGACCCAACAGAGGAUUGAGCAUCA
B2: chr12:16043544:16043545:+_ENSG00000023734_ENST00000419869|hu_hu|FALSE|FALSE (ssRNA)
RNA: GGGAGUUCUACAGUCCGACGAUCUUUGUUCAAGUCAUAUAUGCGUAACAGUUUAUCCUGUCCCCCGGUUAACAAAUAAUUACUAUCCUGCGUGAAAUCCACAGUCUUGACAAUGUGUUUAUGAGCCAGGGUCAUCAAUUCAUCCAACAGAGGAUUGAGCAUCA
B3: chr7:65705844:65705845:+_ENSG00000169902_ENST00000304842|hu_mus|hu_hu_hu_mus_False|1_58 (ssRNA)
RNA: GGGAGUUCUACAGUCCGACGAUCAAACGGAUCUUUGUUACAUAAAUAAGGUGCCGGCUCCCCAUGUUUAACAAUGAUUUCUAGUAAGAAGGCUUGCAUGGCAGAAUCUAGCACUUCAUCUGUGACACCCGCCUCAUCCAGGCGCAACAGAGGAUUGAGCAUCA
B4: 102142795_102142915_3032_3pUTR_ENSMUSG00000027189_ENSMUST00000102573|mouse|control|control (ssRNA)
RNA: GGGAGUUCUACAGUCCGACGAUCAGAUGUAUUAAAUUCUCCAGUCUUUGCAGACAGAUGGUAAGACACCAAAAUUGUCUAAGCCAUCUACUAGCCACCAGCUGGGGAAAGUAUACAUAUUUUUAGAUCUCACACUCCGCUCUGCAACAGAGGAUUGAGCAUCA
B5: chr2:217001844:217001845:+_ENSG00000079246_ENST00000392132|hu_hu|hu_hu_hu_mus_False|28_78 (ssRNA)
RNA: GGGAGUUCUACAGUCCGACGAUCACCAACUUGAGGAUUAGAUCUUUUGUCAUAAGCAUAUCGAACUAUGGCGACCAUGUUUAACUCAUCCAAAGCAUGAACGAGAGAGGAAAGUGCAACAGCUGCCGCCUCAUCAUCCUUUGCCAACAGAGGAUUGAGCAUCA
B6: chr15:31387667:31387668:-_ENSMUSG00000039100_ENSMUST00000090227|mus_hu|FALSE|FALSE (ssRNA)
RNA: GGGAGUUCUACAGUCCGACGAUCUUUAAUACUAUAUGAAAAUUCUUUUAUAGUUUCUGAAGACCUAUGUUAUACGCUUUCUAUGAGAACUUCUAAAUUAUCGUUCAAAAACAAACACUACCCUUACGAUAUACCUUUAGCAUUCAACAGAGGAUUGAGCAUCA
B7: chr10:13244450:13244451:-_ENSMUSG00000019809_ENSMUST00000019945|mus_mus|motif|central (ssRNA)
RNA: GGGAGUUCUACAGUCCGACGAUCAAGGACACCACAUUCCAUUCCAUAUACGUAUGGAAGUACCUAGUUGGUUUGGAUCAGCGGUCCAGACUUUAAGAAAUCAUGAUUGAUCCUGAUGUAAUUUGUGCACCAGUUAGAUACACCCAACAGAGGAUUGAGCAUCA
B8: 84846757_84848177_410_3pUTR_ENSMUSG00000024644_ENSMUST00000025546|mouse|control|control (ssRNA)
RNA: GGGAGUUCUACAGUCCGACGAUCCUGGCCCCUUAUCGUCCGUGGAGCCUCUCCCAUACAGCUUGCCUUCCCGCUCCACCAAGGUGAAGGGCUCGCUGUCCCACCCGUCCUCCAGGGCCGCAGGCUGCACGUCCAGGUGCCCGUCAACAGAGGAUUGAGCAUCA
B9: 33309428_33316740_2492_CDS_ENSG00000083642_ENST00000450460|human|control|control (ssRNA)
RNA: GGGAGUUCUACAGUCCGACGAUCAAUAGCCUGAAUUUUGACCAUUGUCUCAGGAGAUACUUCUUCAUCUGGAACCCAAAGUUUAGUUGUCUUUUUCCCUGGAAGCCGAUCAUUCAUGAGAAGAUCUUUCACAAUGAAAGUAGCCAACAGAGGAUUGAGCAUCA
B10: chrX:71549762:71549763:+_ENSMUSG00000019087_ENSMUST00000019231|mus_mus|mus_mus_mus_hu_False|58_88 (ssRNA)
RNA: GGGAGUUCUACAGUCCGACGAUCAAACCCGUGUACUUCUUAUUGUUACAUCACCCCCACCAGAAAACGAUAACGACAGCUAAGCUGGACAGACAGUUAAGUAGUACUUCCACACUCCCAAACUCAGGGAGCCCUAUAACCUUACAACAGAGGAUUGAGCAUCA
B11: 99993845_99996167_969_CDS_ENSG00000197894_ENST00000296412|human|control|control (ssRNA)
RNA: GGGAGUUCUACAGUCCGACGAUCUUCUACACUCUUCCAUCCUCCAAAGGCAGUGCCUUUCCAUGUGCGACCUGUUACCAGCUGGAAUGGACGAGUGGCAAUUUCUUCACCUGAAGCAGCUACUCCAACCACGACGCUGACGCCCAACAGAGGAUUGAGCAUCA
B12: chr18:42480448:42480449:+_ENSMUSG00000024491_ENSMUST00000091920|mus_mus|FALSE|FALSE (ssRNA)
RNA: GGGAGUUCUACAGUCCGACGAUCGAAGUGUUCGUUGAGCUUGGUAAUGUUGUUCAAUUCCUGGGGGAUUUUUUUCACCUCUAGUUUGGUGUUUGUAUAAUGAUUCUUCCUCAGGAAGCCUGGUUUACUUUGAUUGUUGUUCCCCAACAGAGGAUUGAGCAUCA
B13: chr7:65617436:65617437:+_ENSG00000241258_ENST00000415001|hu_hu|motif|central (ssRNA)
RNA: GGGAGUUCUACAGUCCGACGAUCUUCUUCUCCCCAAGGCACAAAUAUUUCUUUUUAACUUAUUUUUGUGAUGUACCCAACGGACCACAAAGCCAGGCCUGCUGGGAUGAGGAUAAAAAUCAAAUAAACAAUCCUCUCAACGUCCAACAGAGGAUUGAGCAUCA
B14: chr16:71807222:71807223:-_ENSG00000166747_ENST00000299980|perfect_dup|FALSE|FALSE (ssRNA)
RNA: GGGAGUUCUACAGUCCGACGAUCUCCUGCAAGAUCUCUGCACAUCUCUGAGGAGCCCAUGCAGCCGAGGGUACAAAGUGCUAACCCCUGUACGAAUUGCGUGCUAUGAUUAAGAUCAUUCUUGAUACAGUUGGUCAUGAGAAGCAACAGAGGAUUGAGCAUCA

This experiment has as its target T1, UNK ZnF1-3. The experiment in a line: nsRBNS (natural sequence RNA bind-n-seq); RBNS binding buffer (assumed for nsRBNS): 25 mM Tris pH 7.5, 150 mM KCl, 3 mM MgCl2, 0.01% Triton X-100, 500 ug/ml BSA, 20 U/ml SUPERase-In, 4 C; UNK is unkempt and MSI1 is Musashi-1; names of the RNAs are library labels; protein concentration not given here; high values mean tight binding.
Regarding B1, the binding signal turned out to be 0.634 enrichment R.

B2 yielded a binding signal of 1.1 enrichment R.

Take B3: the binding signal is 0.623 enrichment R.

Turning to B4, the binding signal was determined as 0.533 enrichment R.

In turn, B5 displayed a binding signal of 1.69 enrichment R.

On to B6, for which the binding signal is 0.792 enrichment R.

In turn, B7 registered a binding signal of 0.735 enrichment R.

In the case of B8, the binding signal amounted to 0.714 enrichment R.

In the case of B9, the binding signal was found to be 0.884 enrichment R.

B10 yielded a binding signal of 1.53 enrichment R.

B11 yielded a binding signal of 0.505 enrichment R.

In turn, B12 returned a binding signal of 0.356 enrichment R.

B13 returned a binding signal of 1.26 enrichment R.

In the case of B14, the binding signal is 1.22 enrichment R.
